In PubChem BioAssay AID1963576 (National Center for Advancing Translational Sciences (NCATS), 2024):
Out of some 46,000 compounds screened, about 60 (0.1%) were called active. Another 3% or so got no clear call; they are omitted. The call rests on the fitted dose curve; in most records, active means well fitted inhibition curve with a large enough effect; inconclusive means small, poorly fitted or top-dose-only effect; inactive means no such curve, though single readings can be large or run the other way. This is one part of the list.

test: Primary qHTS assay for Inhibitors of ovarian cancer metastasis using an organotypic tumor microenvironment (TME) model.; further: nearly all actives have a fitted effect of over 65% in size;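 on activity change, negative = inhibition: plate controls were DMSO wells for no effect and tomatine positive control wells for full effect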; details: SKOV3ip1-GFP adhesion/invasion on 3D omental model, fluorescence; series mostly up to 45.8 µM; activity change, negative = inhibition: at the top concentration
Procedure, shortened: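 qHTS, 4-pt dose (0.36-46 umol/L); SKOV3ip1-GFP, 1,200 cells/well, no FBS; primary omental fibroblast/mesothelial co-culture 48 h pre-grown; 2 h RT + 16 h 37 C; PBS wash, 4% PFA; GFP count 488/509 nm.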

outcome, inactive:
Cc1ccc(-c2nc(CCNC(=O)C(=O)Nc3ccc(C)c(Cl)c3)cs2)cc1
Cc1cccc(CSc2ncc(Cl)c(C(=O)Nc3nnc(C)s3)n2)c1
CC1=C(C(=O)Nc2ccccc2C)C(c2sccc2C)n2ncnc2N1 (centres undefined)
CCOc1ccc(-c2cc(NC(=O)Nc3ccccc3Cl)c(C(=O)OC)s2)cc1
Cc1ccc(/C=C/c2onc(C)c2S(=O)(=O)N2CCC(C(=O)Nc3cccc(C#N)c3)CC2)cc1
CCOC(=O)COc1ccc(CC)cc1C(=O)c1ccn2nc(-c3ccc(C)cc3)cc2n1
CCc1ccccc1NC(=O)c1nc2nc(C)cc(C(F)F)n2n1
COc1cccc(CN2C(=O)c3ccccc3C2C(=O)NCCc2ccccc2)c1 (centres undefined)
CCCS(=O)(=O)c1c(S(=O)(=O)CCC)c2cc(C(C)(C)C)ccn2c1C(=O)c1ccc(C)cc1
O=C(NCc1ccc(Cl)cc1)C1CCN(C(=O)c2cnn(-c3ccccc3)c2-n2cccc2)CC1
CCOC(=O)c1c(C)[nH]c(C)c1S(=O)(=O)N(C)CC(=O)N1CCN(c2cccc(C)c2C)CC1
COc1cccc(C(=O)Nc2nc3nc(C)c(Cc4ccccc4)c(=O)n3[nH]2)c1
Cc1nn(C)c2c1c(-c1ccccc1)cc(=O)n2Cc1ccc(Br)cc1F
COc1ccccc1C(=O)Nc1ccccc1C(=O)OCc1cc(=O)n2c(C)csc2n1
O=S(=O)(NCCc1csc2nc(-c3ccc(F)cc3)nn12)c1ccc2c(c1)OCCO2
Cc1nn2c3c(cnc2c1-c1ccc(F)cc1)C(=O)CC(c1ccccc1)C3 (centres undefined)
CC[C@]12C=CCN3CC[C@@]4(c5cc([C@@]6(C(=O)OC)C[C@H]7C[C@@H](C(C)(F)F)CN(Cc8c6[nH]c6ccccc86)C7)c(OC)cc5N(C)[C@H]4[C@@](O)(C(=O)OC)[C@H]1OC(C)=O)[C@@H]32
Cc1ccc(N2C(=O)CSC23C(=O)Nc2ccccc23)cc1F (centres undefined)
CCOC(=O)c1c(-c2ccccc2)oc2ccc(OCc3ccc(C)cc3)cc12
COc1cccc(NC(=O)Cc2ccc(NC(=O)N3CCCCc4ccccc43)cc2)c1
COc1ccc(C(=O)Cn2c(=O)n3nc(CCn4nc(C)cc4C)nc3c3cc(OC)c(OC)cc32)cc1
CCOc1ccc(C(=O)Nc2c(C)nc(Nc3ccccc3)nc2Nc2ccccc2)cc1OCC
CCOc1ccccc1CNC(=O)C1=C(C)C(=O)OC12CCN(C(C)=O)CC2
COc1ccccc1N1CCN(C(=O)CSc2nc(C)cc(=O)[nH]2)CC1
COc1ccc(-c2nc(C)c(CCNC(=O)c3ccc(C(F)(F)F)cc3)s2)cc1OC

Activity change, negative = inhibition, inactive:
N#Cc1cccc(NC(=O)C2CCN(S(=O)(=O)c3ccc4c(c3)CCCN4C(=O)C3CCC3)CC2)c1 2.46%
CCCN(CCC)C(=O)Cn1c(SCc2cccc(F)c2)nc2cccnc21 -1.29%
CCOc1ccccc1NC(=O)CSc1nc2cc(OC)c(OC)cc2c2nc(CCn3c(C)nc4ccccc43)nn12 -3.99%
COc1ccc(C2(N3CCN(c4cc(C)ccc4C)CC3)C(=O)c3ccccc3C2=O)cc1 7.11%
Cc1ccc(CNC(=O)c2cc3c(=O)n4cccc(C)c4nc3s2)cc1 12.3%
Cc1ccc2oc(C(=O)NCC(c3ccc(Cl)cc3)N3CCOCC3)c(C)c2c1 (centres undefined) -6.15%
Cc1nc(-c2ccc(F)cc2)sc1CCNC(=O)c1ccccc1C(F)(F)F -19.4%
Cc1ccc(S(N)(=O)=O)cc1NC(=O)c1c(-c2c(Cl)cccc2Cl)noc1C -1.04%
Cc1ccc(CNC(=O)CN2C(=O)C3CCCCN3c3ccc(C(=O)N(C)C)cc32)cc1 (centres undefined) 6.68%
COc1ccccc1NC(=O)CN1C(=O)C(C)(C)c2ccccc21 0.761%
N#Cc1c(C(F)(F)F)cc(-c2cccs2)nc1SCC(=O)Nc1cccc(Br)c1 -0.389%
Cc1ccc(C(=O)N2CCN(c3ccccc3)CC2)cc1NC(=O)c1nsc2ccccc12 2.84%
Cc1ccc(-c2nnc(Nc3ccc(F)cc3)c3ccccc23)cc1S(=O)(=O)NC(C)C -0.44%
CCc1nnc2c(NCc3ccccc3)nc3ccccc3n12 -6.8%
Cc1ccccc1CSc1nc2c([nH]c3ccccc32)c(=O)n1-c1ccccc1 -5.69%
CCN(CC)CCNC(=O)CN1C(=O)CSc2ccc(S(=O)(=O)N3CCOCC3)cc21 7.71%
Cc1cccc(-c2nnc(SCC(=O)Nc3ccc(C)c(C)c3)o2)c1 1.77%
Cn1c(-c2cccc(Br)c2)cnc1NCc1cccc(F)c1 -1.06%
CCN(CC)S(=O)(=O)c1ccc2c(c1)c(=O)c(C(=O)N1CCN(c3ccc(OC)cc3)CC1)cn2C 6.46%
Cc1ccc(CNC(=O)CN2N=C(c3ccc(C)cc3)CCC2=O)cc1 -3.61%
CCCN(CCC)CCCNC(=O)Cn1ncn2c(cc3sc(CC)cc32)c1=O 8.98%
CC(C)c1ccc(NC(=O)C2CCCN(S(=O)(=O)c3ccc4[nH]c(=O)oc4c3)C2)cc1 (centres undefined) -0.177%
COc1cc(SC)ccc1C(=O)N1CCn2c3c(c4cc(C)ccc42)CCCC31 (centres undefined) 8.97%
COc1ccc(Nc2nnc(-c3cc4cc(Cl)ccc4oc3=O)s2)cc1 2.83%
CCC(C)NC(=O)c1ccc(Cn2c(=O)c3cccn3c3cccnc32)cc1 (centres undefined) -0.86%
CCOc1ccc(CNC(=O)Cn2nc(N3CCN(c4ccccc4)CC3)ccc2=O)cc1 -3.23%
Oc1c(C(c2cccc(Br)c2)N2CCCC2)sc2nc(-c3ccco3)nn12 (centres undefined) 0.821%
O=C(CCCCCn1c(=O)[nH]c2ccsc2c1=O)NCc1ccccc1 -5.54%
Cc1ccc(C)c(N2CCN(C(=O)CCc3c(C)nn(-c4ccc(N5CCCC5)nn4)c3C)CC2)c1 9.02%
Cc1ccc(C(=O)Nc2c(C)nc3ccccn3c2=O)cc1 5.39%
COc1ccccc1CNC(=O)CSc1nc2nc(C)c(Cc3ccccc3C)c(C)n2n1 -12.9%
Cc1cccc(N2C(=O)C(CC(=O)Nc3ccccc3)N(C3CCCCC3)C2=O)c1 (centres undefined) -5.43%
CCOC(=O)c1c(C)oc2nc(C)nc(NCCCN3CCN(c4ccccc4OC)CC3)c12 -8.2%
COC(=O)c1ccc(NC(=O)CC2C(=O)N(c3cccc(C)c3)C(=O)N2Cc2ccco2)cc1 (centres undefined) -5.01%
CCCC(=O)c1cc2c(cc1NC(=O)c1ccccc1F)OCCO2 -4.51%
Cc1ccc(CNC(=O)CCCn2c(=O)c3ccccc3n(Cc3ccccc3Cl)c2=O)cc1 -6.89%
CCCCOc1ccc(NC(=O)c2cc3c(n(-c4ccc(Cl)cc4)c2=O)CCCC3=O)cc1 0.925%
COc1ccc(-c2cc(C(F)(F)F)nc(SCC(=O)N3CCCCC3)n2)cc1 -9.04%
O=C(c1cccc([N+](=O)[O-])c1)N1c2nc(-c3ccco3)nn2C2(CCCCC2)[C@@H]2CCCC[C@@H]21 9.83%
Cc1ccc(OCC(=O)N(Cc2ccc(N(C)C)cc2)CC2CCCO2)cc1C (centres undefined) -8.81%
CCCN1CCN(CCNC(=O)Nc2cc(Cl)c(OC)cc2OC)CC1 2.46%
Cc1cc(C)c(-c2csc(-c3cc4ccccc4oc3=O)n2)cc1C -6.22%
CC(=O)Nc1ccc(NC(=O)CC(C)n2ccc(C)n2)cc1 (centres undefined) 21.9%
Cc1cc(C(=O)Nc2cccc(C(F)(F)F)c2)c2c(C)nn(-c3cccc(F)c3)c2n1 -1.06%
O=C(Cn1c(=O)n(CCCS(=O)(=O)C2CCCCC2)c(=O)c2ccccc21)Nc1ccccc1F 1.99%
COc1cccc(CNC(=O)C2CCCN(S(=O)(=O)c3ccc4c(ccn4C)c3)C2)c1OC (centres undefined) -2.33%
Cc1oc(-c2cccc(Cl)c2)nc1CN1CCC(C(=O)NCc2ccc(F)cc2)CC1 3.75%
O=C(NCCc1ccccc1)c1c2c(nc3ccccc13)C(=O)N(C1CCCCC1)C2 -3.85%
COc1ccc(NC(=O)CCn2nc(-c3ccc(Cl)cc3)c3ccccc3c2=O)cc1 8.68%
O=C(Nc1nnc(N2CCCC2)s1)Nc1cc(F)ccc1F 10.3%
Cc1cccc(-c2nc3c4ccccc4n(CC(=O)Nc4cc(F)ccc4F)c(=O)n3n2)c1 5.42%
Cc1cc2c(n1-c1ccc(C(=O)NCc3cccc(Br)c3)cc1)CCC(C)C2 (centres undefined) -10.5%
Cc1ccccc1Cn1c(=O)n(CCCCC(=O)NCc2ccc3c(c2)OCO3)c(=O)c2ccccc21 9.23%
CCCN1C(=O)c2[nH]nc(-c3ccc(F)cc3)c2C1c1ccc(O)c(OCC)c1 (centres undefined) -0.983%
CC(=O)c1cccc(NC(=O)C2CCN(c3nnc(-n4cccc4)s3)CC2)c1 -8.12%
COc1ccc(S(=O)(=O)Nc2c(C)n(C)n(-c3ccccc3)c2=O)cc1Br 6.76%
COc1ccc(COc2cc3oc(=O)c4cc(C(C)O)ccc4c3cc2OC)cc1 (centres undefined) -9.78%
CCOC(=O)c1[nH]c(C)c(CCC(=O)Nc2ccc(C)cc2Cl)c1C 0.537%
CCOc1ccc(CNC(=O)C(C)n2ncn3cccc3c2=O)cc1 (centres undefined) 15.3%
O=C(c1ccc(Br)cc1)N1CCC(c2nc3ccccc3s2)CC1 4.19%
COc1ccc(CCNc2nc(-c3ccccc3OC)cc(C(F)(F)F)n2)cc1OC 19.1%
CC(C)Nc1cc(N2CCN(C3CCCCC3)CC2)c2noc3c2c1C(=O)c1ccccc1-3 5.93%
CCCc1cc(N2CCN(c3ccccc3F)CC2)n2cnnc2n1 15.3%
CCOC(=O)c1c(C)oc2nc(C)nc(NCCc3ccc(C)cc3)c12 1.78%
COc1cc(NC(=O)CN2CCCN(Cc3cccc(F)c3)S2(=O)=O)cc(OC)c1 -9.34%
CCCNC(=O)c1cc2n(n1)CCCN(Cc1ccc(C)cc1)C2=O 6.66%
CCOc1ccc(NC(=O)CSc2oc(-c3ccco3)nc2S(=O)(=O)c2ccccc2)cc1 -23.5%
Cc1ccc(NC(=O)c2oc3ccc(S(=O)(=O)N(C)C4CCCCC4)cc3c2C)c(C)c1 5.35%
Cc1cccc(C(=O)Nc2ccc(N3CC=C(c4ccccc4C)CC3)c(C(=O)O)c2)c1 1.52%
